Reference: the supplement of paper PMC8007513
Structures can show the parent of a compound that is named as a salt. ± gives the standard error. The whole screen tested about 1,300 compounds, of which about 75 (6%) showed an effect of 50% or more. This is one part of the list.

Tested on: Trichoderma virens ATCC 9645
Assay: growth yield (OD600) relative to untreated control; higher = less growth inhibition
Conditions: compound concentration: 100 uM
Method in brief: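 For each 96-well plate, 100 μl aliquots were prepared with Trichoderma virens ATCC 9645 spores suspended at 15,000 spores ml^−1 in potato dextrose broth. The spores had been harvested from potato dextrose agar plates after 7 days. Library compounds were present at 100 μM final, some wells also receiving a biocide at 200 ng ml^−1, and plates were grown at 30 °C with OD600 read on a BioTek EL800 at 40 h and 72 h. Reported growth, relative to the control lacking both agents, is the mean of duplicate screens.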

SMILES	growth yield (40 h)	growth yield (72 h)
C[C@]12CCC(=O)C=C1C=C[C@@H]1[C@@H]2CC[C@@]2(C)[C@H]1CC[C@@]2(O)CCC(=O)O [Canrenoic acid potassium salt]	92.6 ± 2.7%	91.2 ± 4.4%
c1ccc2c(c1)Nc1ccccc1S2 [Phenothiazine]	53.7 ± 6.7%	57.9 ± 3.4%
CC(=O)O[C@H]1C[C@@H]2CC[C@@H]3[C@H](CC[C@@]4(C)[C@H]3C[C@H]([N+]3(C)CCCCC3)[C@@H]4OC(C)=O)[C@@]2(C)C[C@@H]1[N+]1(C)CCCCC1 [Pancuronium bromide]	94.2 ± 1.4%	74.1 ± 2%
C[C@]12CC[C@H]3[C@@H](CCC4=CC(=O)CC[C@@H]43)[C@@H]1CC[C@@H]2O [Nandrolone]	92.6 ± 2.4%	98 ± 1.5%
COc1ccc(CN2CCNCC2)c(OC)c1OC [Trimetazidine dihydrochloride]	105 ± 0.48%	104.6 ± 0.52%
C[C@H](N)[C@H](O)c1ccc(O)c(O)c1 [Levonordefrin]	100.9 ± 0.48%	93.2 ± 1.4%
CC(C)N(CCC(C(N)=O)(c1ccccc1)c1ccccn1)C(C)C (stereo not drawn) [Disopyramide]	100 ± 1.3%	101 ± 1.6%
O=[N+]([O-])O[C@@H]1CO[C@H]2[C@@H]1OC[C@@H]2O [Isosorbide mononitrate]	98.32 ± 0.79%	96.3 ± 1.7%
CN[C@@H]1C[C@@H](c2ccc(Cl)c(Cl)c2)c2ccccc21 [Indatraline hydrochloride]	105 ± 9.2%	109 ± 8.6%
CN1[C@@H]2CC[C@H]1C[C@@H](OC(=O)[C@H](CO)c1ccccc1)C2 [Hyoscyamine (L)]	97.8 ± 3.2%	95.4%
COc1ccc2c(c1)[C@]13CCCC[C@@H]1[C@H](C2)N(C)CC3 [Dextromethorphan hydrobromide monohydrate]	104 ± 2.4%	103 ± 2.6%
C[C@]12CC[C@@H](O)C[C@@H]1CC[C@@H]1[C@@H]2CC[C@]2(C)C(=O)CC[C@@H]12 [Androsterone]	79.9 ± 2.1%	93.86 ± 0.32%
CNCC(O)c1ccc(O)cc1 (racemic) [(+,-)-Synephrine]	105 ± 4.3%	100 ± 2.3%
C1CCc2nnnn2CC1 [Pentylenetetrazole]	105 ± 3.6%	107 ± 4.5%
CC(Cc1ccc(O)cc1)NCC(O)c1cc(O)cc(O)c1 (stereo not drawn) [Fenoterol hydrobromide]	96.42 ± 0.16%	96 ± 1.8%
C=CC[C@]1(O)CC[C@H]2[C@@H]3CCC4=CC(=O)CCC4=C3C=C[C@@]21C [Altrenogest]	97.7 ± 6.2%	90.9 ± 3.5%
CC(C)CC(N(C)C)C1(c2ccc(Cl)cc2)CCC1 (stereo not drawn) [Sibutramine hydrochloride]	99.4 ± 3.2%	103 ± 5.5%
C#C[C@]1(O)CC[C@H]2[C@@H]3CCC4=CC(=O)CC[C@]4(C)[C@H]3CC[C@@]21C [Ethisterone]	98.5 ± 1.3%	101 ± 2.5%
CC(C)[N+](C)(CCC(C(N)=O)(c1ccccc1)c1ccccc1)C(C)C [Isopropamide iodide]	103 ± 4.3%	97.5 ± 2.7%
O=C([O-])c1ccccc1-c1c2cc(Br)c(=O)cc-2oc2[c]([Hg+])c([O-])c(Br)cc12.[Na+].[Na+].[OH-] [Merbromin]	2.54 ± 0.95%	2.2 ± 0.94%

SMILES	growth yield (40 h)	growth yield (72 h)
O=c1[nH]c2ccccc2n1CCCN1CCC(n2c(=O)[nH]c3cc(Cl)ccc32)CC1 [Domperidone]	107 ± 1.8%	108.9 ± 0.63%
S=C(NC1CCCCC1)N1CCC(c2cnc[nH]2)CC1 [Thioperamide maleate]	95.9%	95.02 ± 0.84%
C[C@]12CCC(=O)C=C1CC[C@@H]1[C@@H]2C(=O)C[C@]2(C)C(=O)CC[C@@H]12 [Adrenosterone]	98.32 ± 0.48%	95.4 ± 1.5%
CC[C@H](C)[C@H]1O[C@]2(C=C[C@@H]1C)C[C@@H]1C[C@@H](C/C=C(\C)[C@@H](O[C@H]3C[C@H](OC)[C@@H](O[C@H]4C[C@H](OC)[C@@H](O)[C@H](C)O4)[C@H](C)O3)[C@@H](C)/C=C/C=C3\CO[C@@H]4[C@H](O)C(C)=C[C@@H](C(=O)O1)[C@]34O)O2.CO[C@H]1C[C@H](O[C@H]2[C@H](C)O[C@@H](O[C@@H]3/C(C)=C/C[C@@H]4C[C@@H](C[C@]5(C=C[C@H](C)[C@@H](C(C)C)O5)O4)OC(=O)[C@@H]4C=C(C)[C@@H](O)[C@H]5OC/C(=C\C=C\[C@@H]3C)[C@]54O)C[C@@H]2OC)O[C@@H](C)[C@@H]1O [Avermectin B1]	107 ± 5.6%	105 ± 2.3%
C[N+]1(C)CCOC(O)(c2ccc(-c3ccc(C4(O)C[N+](C)(C)CCO4)cc3)cc2)C1 (stereo not drawn) [Hemicholinium bromide]	98.32 ± 0.48%	101 ± 0.1%
CC[C@@H](C(N)=O)N1CCCC1=O [Levetiracetam]	101 ± 4.1%	100 ± 3.1%
COc1ccc(C(=O)N2CCCC2=O)cc1 [Aniracetam]	105 ± 5.4%	103 ± 5%
CCN[C@@H](C)Cc1cccc(C(F)(F)F)c1 [Dexfenfluramine hydrochloride]	102 ± 3.6%	102 ± 4.3%
CC[C@@]1(O)C(=O)OCc2c1cc1n(c2=O)Cc2cc3ccccc3nc2-1 [Camptothecine (S,+)]	99.1 ± 3.8%	98.6 ± 2.9%
CCC(=O)O[C@@](Cc1ccccc1)(c1ccccc1)[C@@H](C)CN(C)C [Levopropoxyphene napsylate]	106 ± 2.9%	103 ± 3.4%
C[N+]1(C)[C@@H]2CC[C@H]1C[C@@H](OC(=O)C(CO)c1ccccc1)C2 (stereo partly drawn) [Methylatropine nitrate]	102 ± 3.2%	97.4 ± 2%
CN1C[C@H](C(=O)N[C@]2(C)O[C@@]3(O)[C@@H]4CCCN4C(=O)[C@H](Cc4ccccc4)N3C2=O)C[C@@H]2c3cccc4[nH]cc(c34)C[C@H]21 [Dihydroergotamine tartrate]	111%	108%
C[N+](C)(C)CCCCCCCCCC[N+](C)(C)C [Decamethonium bromide]	111 ± 7.9%	102 ± 6.5%
CC(=O)OC1CN2CCC1CC2 (stereo not drawn) [Aceclidine Hydrochloride]	97.2 ± 2.9%	101 ± 3.5%
CC(CCc1ccccc1)NC(C)C(O)c1ccc(O)cc1 (stereo not drawn) [Nylidrin]	100 ± 2.1%	99.2 ± 2.9%
COc1cccc(C2(O)CCCCC2CN(C)C)c1 (stereo not drawn) [Tramadol hydrochloride]	101 ± 1.3%	99.8 ± 2.1%
CCCN1C[C@H](CSC)C[C@@H]2c3cccc4[nH]cc(c34)C[C@H]21 [Pergolide mesylate]	94.5 ± 1.8%	98.5 ± 1.4%
COc1ccc(CCN)cc1OC [Homoveratrylamine]	102.8 ± 0.16%	101 ± 1.9%
CC(=O)O[C@H]1C[C@H](O[C@H]2[C@@H](O)C[C@H](O[C@H]3[C@@H](O)C[C@H](O[C@H]4CC[C@@]5(C)[C@H](CC[C@@H]6[C@@H]5C[C@@H](O)[C@]5(C)[C@@H](C7=CC(=O)OC7)CC[C@]65O)C4)O[C@@H]3C)O[C@@H]2C)O[C@H](C)[C@H]1O[C@@H]1O[C@H](CO)[C@@H](O)[C@H](O)[C@H]1O [Lanatoside C]	101 ± 5.2%	98.2 ± 3.6%
COc1ccc(CCN2CCC(Nc3nc4ccccc4n3Cc3ccc(F)cc3)CC2)cc1 [Astemizole]	79.1 ± 2.9%	96.5 ± 6.5%

SMILES	growth yield (40 h)	growth yield (72 h)
Oc1cc(Cl)ccc1Oc1ccc(Cl)cc1Cl [Triclosan]	6.99 ± 4.1%	3.25 ± 0.1%
CCN(CC)C(C)C(=O)c1ccccc1 (stereo not drawn) [Amfepramone hydrochloride]	102 ± 3%	99 ± 3.1%
C[N+]1([O-])[C@@H]2C[C@@H](OC(=O)[C@H](CO)c3ccccc3)C[C@H]1[C@@H]1O[C@@H]12 (stereo partly drawn) [Scopolamin-N-oxide hydrobromide]	100 ± 1.6%	96 ± 1.1%
CCC1(CC)C(=O)C=CNC1=O [Pyrithyldione]	98.3 ± 1.8%	97.3 ± 1.7%
COc1ccc(Cc2nccc3cc(OC)c(OC)cc23)cc1OC [Papaverine hydrochloride]	102.9 ± 0.95%	103 ± 0.63%
Fc1ccc(C(OCCN2CCN(CCCc3ccccc3)CC2)c2ccc(F)cc2)cc1	61.79 ± 0.16%	92 ± 0.94%
CC(C)(C)NCC(O)c1cc(Cl)c(N)c(Cl)c1 (stereo not drawn) [Clenbuterol hydrochloride]	106.1 ± 0.32%	111%
CC[C@@]1([C@@H]2O[C@@H]([C@H]3O[C@@](O)(CO)[C@H](C)C[C@@H]3C)C[C@@H]2C)CC[C@H]([C@]2(C)CC[C@]3(C[C@H](O)[C@@H](C)[C@@H]([C@@H](C)[C@@H](OC)[C@H](C)C(=O)O)O3)O2)O1 [Monensin sodium salt]	105.5 ± 0.32%	105 ± 7.5%
CCN(C)C(=O)Oc1cccc([C@H](C)N(C)C)c1 [Rivastigmine]	103 ± 1.3%	95.2 ± 5.2%
CCC1(c2ccc(N)cc2)CCC(=O)NC1=O (stereo not drawn) [Glutethimide, para-amino]	102 ± 2.5%	106 ± 1.3%
C[C@]12CC[C@H](O)C[C@@H]1CC[C@@H]1[C@@H]2CC[C@]2(C)C(=O)CC[C@@H]12 [Epiandrosterone]	91.8%	98%
CCn1cc(C(=O)O)c(=O)c2cc3c(cc21)OCO3 [Oxolinic acid]	95.46 ± 0.16%	97.43 ± 0.1%
CN(C)C(=O)Oc1cc(OC(=O)N(C)C)cc(C(O)CNC(C)(C)C)c1 (stereo not drawn) [Bambuterol hydrochloride]	98.64 ± 0.79%	103 ± 1.1%
NCC(O)c1ccc(O)cc1 (racemic) [(+,-)-Octopamine hydrochloride]	106 ± 1.4%	99.7 ± 2.8%
CN1[C@@H]2CC[C@H]1C[C@@H](OC1c3ccccc3CCc3ccccc31)C2 [Deptropine citrate]	97.1 ± 2.7%	97 ± 1.1%
C[C@]12CC[C@@H]3c4ccc(OC(=O)N(CCCl)CCCl)cc4CC[C@H]3[C@@H]1CC[C@@H]2O [Estramustine]	107 ± 5.1%	103 ± 3.7%
C=C(C)[C@@H]1[C@H]2OC(=O)[C@@H]1[C@]1(O)C[C@H]3O[C@]34C(=O)O[C@H]2[C@]14C [Picrotoxinin]	100 ± 2.7%	98.8 ± 2.9%
CC(C)c1c(CN(C)C(C)Cc2ccccc2)n(C)n(-c2ccccc2)c1=O (stereo not drawn) [Famprofazone]	93.4 ± 0.32%	91.6 ± 0.94%
NC(=O)CN1CCCC1=O [Piracetam]	103.9 ± 0.32%	102.2 ± 0.52%
